Measured values as given in patent US20230295281A1.
Some values that stand alone complete this part of the results.

Biological target: oxidized LDL (oxidized low-density lipoprotein) (UniProt P04114)
Assay: ELISA on coated oxLDL, isotype-specific secondary antibodies

share of oxLDL-binding antibodies by isotype (ratio of OD450 of the isotype to all isotypes) (IgA isotype): 19%
share of oxLDL-binding antibodies by isotype (ratio of OD450 of the isotype to all isotypes) (IgG isotype): 45%
share of oxLDL-binding antibodies by isotype (ratio of OD450 of the isotype to all isotypes) (IgM isotype): 35%
Substance: Pentaglobin (human polyclonal immunoglobulin infusion preparation enriched for IgM and IgA)
